Data published in the supplement of paper PMC3334620.
In all, about 33,000 sequences were measured (“E-score (-0.5 to 0.5)”: median about -0.056, highest 2% from about 0.38 on). This is one part of the list.

target: Stb4 (UniProt P50104); experiment: PBM E-score (8-mer binding enrichment) (E-score (-0.5 to 0.5)); higher = stronger / more preferred TF binding; most listed sequences are background and not binding sites; settings: protein concentration: 200 nM; construct: GST-DNA-binding domain
Method in brief: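 Universal all-10-mer Agilent arrays, double-stranded by primer extension on fresh or once-stripped slides, were probed with about 100-200 nM GST-tagged yeast transcription factors made by PURExpress. Fluorescent anti-GST detected bound protein, and masliner normalised the scans. E-scores from the Universal PBM Analysis Suite were given to each ungapped eight-base word pooled with its reverse complement.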

Going from AGTCAACC to GCGCAGAA, the “PBM E-score” value falls from -0.0246 to -0.0596.

Compared with AAGTATCT, ATTCGATC is lower in “PBM E-score” value: 0.0592 for the first, 0.0474 for the second.

Compared with GACAGGCA, ACTGAAGT is lower in “PBM E-score” value: -0.121 for the first, -0.122 for the second.

Going from GTGGGTAA to CGGTGTAA, the “PBM E-score” value rises from 0.0335 to 0.126.

Going from AAAGTATT to CACGCGCC, the “PBM E-score” value rises from -0.146 to 0.0048.

First: GGTATAGA
Second: GAGCAGGC
The “PBM E-score” value of the first is higher: 0.0466 for the first, -0.135 for the second.

Going from ATCATAAG to TAGGCCAA, the “PBM E-score” value rises from -0.0519 to -0.0277.

Going from AGCCCCGA to ACAGGAGT, the “PBM E-score” value falls from 0.237 to -0.174.

First: AGCACGGC
Second: ACTTAGAA
The “PBM E-score” value of the first is higher: 0.151 for the first, -0.15 for the second.

First: GAGTCCCC
Second: ATCCAATC
The “PBM E-score” value of the first is lower: -0.0682 for the first, -0.0238 for the second.

Going from TACGCTGA to TTATGGAA, the “PBM E-score” value falls from 0.031 to -0.154.

Compared with GTCAGAGA, ATGCAAAC is higher in “PBM E-score” value: -0.222 for the first, -0.0921 for the second.

First: ATTGACGA
Second: CAGCCTGA
The “PBM E-score” value of the first is higher: -0.138 for the first, -0.171 for the second.

Going from CCCATAAA to ACTTTTAC, the “PBM E-score” value rises from -0.06 to 0.115.

Going from ATCCGGAG to CGCCTGTA, the “PBM E-score” value falls from 0.385 to 0.0386.

Compared with AATAAATG, AAACAATG is lower in “PBM E-score” value: -0.0394 for the first, -0.254 for the second.

Going from AGAAGTCG to CATGTCTA, the “PBM E-score” value falls from -0.0869 to -0.183.

Going from GTGGGCTA to CCCACCGG, the “PBM E-score” value rises from -0.178 to 0.208.

First: GTGGATGA
Second: ACATGCAT
The “PBM E-score” value of the first is lower: -0.14 for the first, -0.0931 for the second.

Going from AGAAATAA to GCCATAGA, the “PBM E-score” value falls from -0.0758 to -0.232.

Compared with AATGGTGA, CGGGCTGA is higher in “PBM E-score” value: -0.252 for the first, 0.0911 for the second.

AGACTTAA and AATCTTAA are the same in “PBM E-score” value: -0.149 for the first, -0.149 for the second.

First: CGGCGAAA
Second: TGCACACA
The “PBM E-score” value of the first is higher: 0.201 for the first, -0.236 for the second.

Compared with CTTCGATC, CATGGCCG is higher in “PBM E-score” value: 0.00255 for the first, 0.0847 for the second.

Compared with CACAACGG, GATCCGTA is higher in “PBM E-score” value: 0.0466 for the first, 0.351 for the second.

Going from CCTTGAGC to ATGGAAGG, the “PBM E-score” value falls from -0.0908 to -0.159.

Compared with AAGCCGTC, GAACCTGC is lower in “PBM E-score” value: 0.187 for the first, -0.113 for the second.

First: AGATTTAC
Second: ACTGTCAT
The “PBM E-score” value of the first is higher: -0.0548 for the first, -0.148 for the second.

Compared with AAGAACAA, AAACAGGC is lower in “PBM E-score” value: 0.0482 for the first, -0.0186 for the second.

First: GGAGAGAA
Second: ATGGTACC
The “PBM E-score” value of the first is lower: 0.0164 for the first, 0.106 for the second.

Compared with ACCGCTCC, AACAGTCA is lower in “PBM E-score” value: 0.0434 for the first, -0.213 for the second.

Compared with ACAGTCAT, CGGTAACC is higher in “PBM E-score” value: -0.108 for the first, 0.231 for the second.

Going from AGTGGCAC to GTTCAAAC, the “PBM E-score” value rises from -0.149 to 0.0996.

Compared with ATGAAGAG, CTTCGAAA is lower in “PBM E-score” value: -0.144 for the first, -0.2 for the second.

Compared with AAGTGAGG, ATGACTCA is higher in “PBM E-score” value: -0.184 for the first, -0.093 for the second.

First: CAAGAATA
Second: ATCTACGC
The “PBM E-score” value of the first is higher: 0.121 for the first, 0.0191 for the second.

First: TAAAAGAA
Second: TGGTAGAA
The “PBM E-score” value of the first is lower: -0.262 for the first, -0.174 for the second.

Going from CAGGCGGG to CCCTACCG, the “PBM E-score” value rises from 0.0295 to 0.137.

Going from CATACTGC to AGGAGTCG, the “PBM E-score” value rises from -0.144 to -0.142.

Going from GCGACTGA to GTGTTAGA, the “PBM E-score” value rises from -0.265 to -0.00711.

Going from AAATCTAG to ATGCCAAC, the “PBM E-score” value falls from -0.102 to -0.209.

First: CAACGATA
Second: CAGCACAG
The “PBM E-score” value of the first is higher: 0.0213 for the first, -0.28 for the second.

Compared with AGATCCGC, TCAGGCGA is lower in “PBM E-score” value: 0.291 for the first, -0.19 for the second.
